The results in this text go back to PubChem BioAssay AID488969 (Vanderbilt High Throughput Screening Facility, 2010).

Over roughly 110,000 compounds, “z-score” has its median near -0.1; the highest 2% begin near 2. The list shows a part of the results. Active and inactive are the calls of the source.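 How the source made its calls: active means z-score in the third read window above 3 or below -3; inactive means the rest.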

In this assay the target is Metabotropic glutamate receptor 8 (Rattus norvegicus) (UniProt P70579). Nature of the assay: rat mGluR8 modulators via GIRK flux, primary screen, cell-based, thallium flux, HTS (AID 488969). The following applies: HEK293 rat mGluR8, GIRK (G protein-gated inwardly rectifying potassium channel) thallium flux, FluoZin2; at 10 µM; stronger effect = higher value; submaximal glutamate (EC20) added with thallium.
UniProt P70579, sequence (P70579 whole entry, looked up): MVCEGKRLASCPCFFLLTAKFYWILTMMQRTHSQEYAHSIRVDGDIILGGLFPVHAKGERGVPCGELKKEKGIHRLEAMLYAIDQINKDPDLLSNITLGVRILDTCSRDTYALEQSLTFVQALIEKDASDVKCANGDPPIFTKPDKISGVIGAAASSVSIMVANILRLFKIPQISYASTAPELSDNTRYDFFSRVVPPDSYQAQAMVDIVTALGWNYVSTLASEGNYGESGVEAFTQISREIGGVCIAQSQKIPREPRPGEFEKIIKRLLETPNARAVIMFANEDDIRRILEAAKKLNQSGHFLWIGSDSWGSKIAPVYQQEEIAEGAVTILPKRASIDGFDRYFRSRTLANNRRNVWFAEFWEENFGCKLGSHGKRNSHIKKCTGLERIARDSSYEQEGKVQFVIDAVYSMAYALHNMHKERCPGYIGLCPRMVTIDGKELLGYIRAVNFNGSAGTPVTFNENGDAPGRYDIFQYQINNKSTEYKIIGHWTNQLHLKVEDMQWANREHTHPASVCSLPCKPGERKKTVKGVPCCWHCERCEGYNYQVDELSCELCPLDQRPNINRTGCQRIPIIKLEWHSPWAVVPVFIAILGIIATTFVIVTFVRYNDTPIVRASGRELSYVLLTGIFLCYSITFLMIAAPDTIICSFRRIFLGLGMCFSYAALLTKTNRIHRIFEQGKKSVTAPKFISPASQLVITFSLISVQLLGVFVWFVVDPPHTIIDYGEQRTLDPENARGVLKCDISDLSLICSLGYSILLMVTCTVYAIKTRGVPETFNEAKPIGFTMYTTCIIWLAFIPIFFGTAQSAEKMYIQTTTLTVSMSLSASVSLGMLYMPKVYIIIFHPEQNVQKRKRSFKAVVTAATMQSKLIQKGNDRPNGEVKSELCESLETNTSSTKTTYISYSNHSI
The compound `C/C=C/c1ccc(OCCOc2ccc(C=O)cc2OC)c(OC)c1` came in with a z-score of -0.0507. The compound `CCOc1ccc(NC(=O)C(c2ccccn2)N(C(=O)CCl)c2ccc(OC)cc2)cc1` (stereo unspecified) registered a z-score of 0.0198. Then `CNC(=O)COC(=O)c1ccc([N+](=O)[O-])cc1Cl`, with -0.213. To `O=C(CCC1COc2ccccc2O1)NCC1COc2ccccc2O1` (stereo unspecified) belongs 0.357; to `CCOc1cc(C(=O)NCCCn2ccnc2)cc(OCC)c1OCC`, -0.00695; to `CC(C)NC(=O)COC(=O)c1ccc(NS(=O)(=O)c2ccc3c(c2)OCCO3)cc1`, -0.352. To `CCOc1cc(/C=N/NC(=O)CSc2nncn2C)ccc1OCc1cccc(C)c1` belongs 0.0457.

Regarding `Cc1cc(-n2c(C)cc(C(=O)CSc3nc4ccccc4c(=O)n3Cc3ccco3)c2C)no1`, the z-score is -0.119. `CCOc1ccccc1NC(=O)C(OC(=O)c1ccccc1NS(=O)(=O)c1cccs1)c1ccccc1` (stereo unspecified): the z-score was -0.417. To `CCC1(C)Cc2c(sc3nc(SC)nc(NCCN(C)C)c23)CO1` (stereo unspecified) belongs 0.0651. To `O=C(Nc1ccc(Cl)c(Cl)c1)c1ccc(Cn2cc(Cl)cn2)cc1` belongs -0.0902; to `Cn1nccc1C(=O)Nc1ccn(C23CC4CC(CC(C4)C2)C3)n1`, -0.275; to `Cc1ccc(N=Cc2cc(C)n(C3CCCC3)c2C)cc1`, 0.457.

`Cc1cc(O)c(C(=O)c2ccccc2C(=O)O)cc1C` returned a z-score of 0.613. Then `Cc1[nH]c(=O)[nH]c(=O)c1S(=O)(=O)N1CCCC(C(=O)NCc2ccco2)C1` (stereo unspecified), with -0.108; and `COc1ccc(S(=O)(=O)N2CCN(C(=O)c3c(-c4ccccc4)noc3C)CC2)cc1`, with 0.298. Then `Cc1[nH]n(-c2ccccc2)c(=O)c1C1(C(F)(F)F)C(=O)N(c2ccccc2)C2=C1C(=O)CC(C)(C)C2` (stereo unspecified), with 0.785. On to `O=S(=O)(Nc1ccc(Cc2ccncc2)cc1)N1CCCC1`, for which the z-score was 0.663. Then `COc1ccc(N=C2S/C(=C\c3cc(C)n(C)c3C)C(=O)N2C)cc1`, with 0.0241. To `O=c1nc2ccccc2c(NS(=O)(=O)c2ccccc2)n1-c1ccccc1` belongs -0.176. Then `N#C/C(=C/c1ccc(N2CCCCC2)o1)c1cccc(F)c1`, with 0.0995. Turning to `CN(CC(=O)NC(c1ccccc1)c1ccccc1)Cc1nc2ccccc2c(=O)[nH]1`, the z-score is -0.265. Then `S=C(c1ccc(N2CCOCC2)cc1)N1CCOCC1`, with 0.0674. To `Cc1ccc(C2CC(c3cccc(Br)c3)Nc3nnnn32)cc1` (stereo unspecified) belongs 0.52; to `O=C(O)c1cc(S(=O)(=O)Nc2ccc3oc(=O)sc3c2)ccc1O`, 1. Consider `CCOc1ccc(/C=N/NC(=O)COc2ccccc2-c2ccccc2)cc1`, for which the z-score turned out to be 0.17. Then `COc1cccc(NC(=O)COC(=O)CCCc2c[nH]c3ccccc23)c1`, with 0.138; and `CCc1ccc(C2=Nn3c(nnc3-c3cccs3)SC2)cc1`, with 0.381. To `CC(=O)Nc1ccccc1OCc1nnc(-c2cccs2)o1` belongs -0.261; to `CCN(CC)C(=S)SCC(=O)Nc1nc(=O)c2ccccc2s1`, active: 5.2. Then `CCOC(=O)c1cnn(-c2ccccc2)c1NC(=O)C(F)(F)C(F)(F)C(F)(F)F`, with 0.0228; and `CC(=O)c1ccc(-n2nnnc2SCC(=O)N2CCN(C(=O)c3ccco3)CC2)cc1`, with 0.0827; and `COc1cc(OC)cc(C(=O)N(Cc2nc(-c3cccc(C)c3)no2)C(C)C)c1`, with 0.789. As for `COc1ccc(N2C(=O)C3CCCN3C2c2ccccc2)cc1` (stereo unspecified), the z-score was -0.198. In the case of `CC12CCC(C(=O)N(Cc3ccccc3)Cc3ccccc3)(OC1=O)C2(C)C` (stereo unspecified), the z-score was -0.0292.

In turn, `COC1CCCCC1NS(=O)(=O)c1ccc(Cl)cc1` (stereo unspecified) returned a z-score of -0.0246.

The compound `C=CCc1cccc(CNc2nc3ccccc3n2CC)c1O` returned a z-score of 0.0464. To `CCc1nc2ccc(C(=O)Nc3ccc(NC(C)=O)cc3)cc2nc1CC` belongs -0.168. For `CC#CCCC(=O)N1C=Cc2ccccc2C1C#N` (stereo unspecified), the z-score worked out at 1.61. With `COc1cccc(NC(=S)N(CCc2nc3cc(C)c(C)cc3[nH]2)Cc2cccnc2)c1`, the z-score turned out to be 1.13. On to `CC(C)CCNC(=O)CNC(=O)c1cccs1`, for which the z-score was -0.151. Regarding `COc1cccc(CNC(=O)C2CCN(C(=O)N(C)C)CC2)c1`, the z-score amounted to 0.335.

As for `COC(=O)c1cc(NS(=O)(=O)c2ccc(NCc3cccnc3)c(N)c2)cc(C(=O)OC)c1`, the z-score is -0.104. To `COC(=O)c1ccccc1NC(=O)Cn1c(SC)c(F)cnc1=O` belongs 0.27. `CCOC(=O)c1cnc2cc(C)ccn2c1=O` returned a z-score of -0.119. The compound `COc1cccc(NC(=S)NCCN2CCOCC2)c1` had a z-score of -0.0624. Then `O=C(CCC1CCCC1)Nc1ccc(OCC(=O)N2CCOCC2)cc1`, with 0.254; and `CCn1c(C)c2c([n+]1CC)CC(C)(C)CC2=O`, with -0.301. `Cc1cnn(CCC(=O)NNC(=S)NCC(C)C)c1` displayed a z-score of -0.286. Then `CCC/C(=N\NC(=O)c1ccccc1C)c1ccccc1`, with -0.166; and `CCOC(=O)c1nonc1NC(C)=O`, with 0.104. For `C(=N\n1cnnc1)/c1ccccc1OCCOc1ccccc1`, the z-score was -0.414. Then `CSc1ccc(-c2nnn(CC(=O)NCc3ccccc3)n2)cc1`, with -0.31.

For `O=C(CSc1nnc(Nc2ccccc2)s1)NCCN1C(=O)CSC1=O`, the z-score is -0.304.

`CCCCNC(=S)N(C)/N=C/c1sc(N2CCCCC2)nc1-c1cccs1` registered a z-score of -0.408. To `Cn1c(SCC(=O)Nc2ncc(C(F)(F)F)cc2Cl)nnc1-c1ccc(Cl)cc1` belongs 0.131; to `COc1cc2cc(CN(CCN3CCCC3)C(=O)Nc3ccc(F)cc3)c(=O)[nH]c2cc1OC`, -0.532. To `O=C(NCCN1CCOCC1)c1cccs1` belongs -0.0304; to `CC(C)C(NC(=O)OCc1ccccc1)C(=O)NCc1ccc(C(=O)O)cc1` (stereo unspecified), -0.468.

Consider `O=C(NCCN1CCOCC1)Nc1ccccc1`, for which the z-score was -0.0136.

`Cc1ccc2[nH]c(=O)c3cc(C(=O)NCCN4CCN(C)CC4)sc3c2c1` showed a z-score of 0.666.

Regarding `Cc1ccc(S(=O)(=O)N2CCCCC2)cc1C(=O)Nc1ccc(N2CCOCC2)cc1`, the z-score is -0.0255. To `O=C(CSC1=N/C(=C/c2ccc(Cl)c(Cl)c2)C(=O)N1c1ccccc1F)NC1CC1` belongs 0.494; to `COc1ccc(/C=N/NC(=O)c2[nH]c3ccc(Br)cc3c2-c2ccccc2)cc1`, -0.133; to `CC(C)c1ccc(CN2CC(C(=O)O)CC2=O)cc1` (stereo unspecified), -0.348. As for `COc1ccccc1N1CCN(S(C)(=O)=O)CC1`, the z-score turned out to be 0.541. For the compound `CCC1CCCCN1c1cc(C)nc2cc(-c3cccc(C)c3)nn12` (stereo unspecified), the z-score is -0.0418.

The compound `O=C(Cn1cnc2ccccc2c1=O)N1CCN(Cc2ccccc2)CC1` yielded a z-score of -0.354. To `O=C(CCC1CCCC1)N1CCN(C(=O)c2cccnc2)CC1` belongs 0.841; to `COc1cc(-c2nnc(SCC#CCO)o2)cc(OC)c1OC`, 0.882; to `O=S(=O)(NCCOc1ccccc1Cl)c1ccc2oc3ccccc3c2c1`, -0.0994.
